Data published in the supplement of paper PMC8728848.
This is one part of the list.

Legend:
Assay in all cases: glycan array binding signal (z-score within array); higher = stronger binding
Conditions in all cases: glycan notation: IUPAC condensed, linker removed
[1] = biological target: Fuc(a1-2)Gal6S(b1-3)GlcNAc
In short: (§1)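 From the Consortium for Functional Glycomics database, 3228 arrays were curated, keeping only those whose protein sequence was available. Binding is given as a within-array Z-score averaged across arrays sharing a protein sequence and across linkers. Negative Z-scores can be read as non-binding.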

[2] = biological target: Fuc(a1-2)Gal6S(b1-3)GlcNAc6S
In short: as §1

Fuc(a1-2)Gal6S(b1-4)Glc = biological target: Fuc(a1-2)Gal6S(b1-4)Glc
In short: as §1

[3] = biological target: Fuc(a1-2)Gal6S(b1-4)Glc6S
In short: as §1

Fuc(a1-2)[Gal(a1-3)]Gal = biological target: Fuc(a1-2)[Gal(a1-3)]Gal
In short: as §1

[4] = biological target: Fuc(a1-2)[Gal(a1-3)]Gal(b1-3)GalNAc
In short: as §1

[5] = biological target: Fuc(a1-2)[Gal(a1-3)]Gal(b1-3)GalNAc(b1-3)Gal(a1-4)Gal(b1-4)Glc
In short: as §1

[6] = biological target: Fuc(a1-2)[Gal(a1-3)]Gal(b1-3)GlcNAc
In short: as §1

[7] = biological target: Fuc(a1-2)[Gal(a1-3)]Gal(b1-3)GlcNAc(b1-2)Man(a1-3)[Fuc(a1-2)[Gal(a1-3)]Gal(b1-3)GlcNAc(b1-2)Man(a1-6)]Man(b1-4)GlcNAc(b1-4)GlcNAc
In short: as §1

[8] = biological target: Fuc(a1-2)[Gal(a1-3)]Gal(b1-3)GlcNAc(b1-2)Man(a1-3)[Fuc(a1-2)[Gal(a1-3)]Gal(b1-3)GlcNAc(b1-2)Man(a1-6)]Man(b1-4)GlcNAc(b1-4)[Fuc(a1-6)]GlcNAc
In short: as §1

[9] = biological target: Fuc(a1-2)[Gal(a1-3)]Gal(b1-3)GlcNAc(b1-3)GalNAc
In short: as §1

[10] = biological target: Fuc(a1-2)[Gal(a1-3)]Gal(b1-3)GlcNAc(b1-6)GalNAc
In short: as §1

[11] = biological target: Fuc(a1-2)[Gal(a1-3)]Gal(b1-4)Glc
In short: as §1

[12] = biological target: Fuc(a1-2)[Gal(a1-3)]Gal(b1-4)GlcNAc
In short: as §1

[13] = biological target: Fuc(a1-2)[Gal(a1-3)]Gal(b1-4)GlcNAc(b1-2)Man
In short: as §1

[14] = biological target: Fuc(a1-2)[Gal(a1-3)]Gal(b1-4)GlcNAc(b1-2)Man(a1-3)[Fuc(a1-2)[Gal(a1-3)]Gal(b1-4)GlcNAc(b1-2)Man(a1-6)]Man(b1-4)GlcNAc(b1-4)GlcNAc
In short: as §1

[15] = biological target: Fuc(a1-2)[Gal(a1-3)]Gal(b1-4)GlcNAc(b1-2)Man(a1-3)[Fuc(a1-2)[Gal(a1-3)]Gal(b1-4)GlcNAc(b1-2)Man(a1-6)]Man(b1-4)GlcNAc(b1-4)[Fuc(a1-6)]GlcNAc
In short: as §1

[16] = biological target: Fuc(a1-2)[Gal(a1-3)]Gal(b1-4)GlcNAc(b1-3)GalNAc
In short: as §1

[17] = biological target: Fuc(a1-2)[Gal(a1-3)]Gal(b1-4)GlcNAc(b1-3)[Fuc(a1-2)[Gal(a1-3)]Gal(b1-4)GlcNAc(b1-6)]GalNAc
In short: as §1

[18] = biological target: Fuc(a1-2)[Gal(a1-3)]Gal(b1-4)GlcNAc(b1-6)GalNAc
In short: as §1

[19] = biological target: Fuc(a1-2)[Gal(a1-3)]Gal(b1-4)[Fuc(a1-3)]Glc
In short: as §1

[20] = biological target: Fuc(a1-2)[Gal(a1-3)]Gal(b1-4)[Fuc(a1-3)]GlcNAc
In short: as §1

[21] = biological target: Fuc(a1-2)[Gal(a1-3)]Gal(b1-4)[Fuc(a1-3)]GlcNAc(b1-3)GalNAc
In short: as §1

[22] = biological target: Fuc(a1-2)[Gal(a1-4)]Gal(b1-4)GlcNAc
In short: as §1

[23] = biological target: Fuc(a1-2)[GalNAc(a1-3)]Gal
In short: as §1

[24] = biological target: Fuc(a1-2)[GalNAc(a1-3)]Gal(b1-3)GalNAc(a1-3)[Fuc(a1-2)]Gal(b1-4)GlcNAc
In short: as §1

[25] = biological target: Fuc(a1-2)[GalNAc(a1-3)]Gal(b1-3)GalNAc(b1-3)Gal(a1-4)Gal(b1-4)Glc
In short: as §1

[26] = biological target: Fuc(a1-2)[GalNAc(a1-3)]Gal(b1-3)GlcNAc
In short: as §1

[27] = biological target: Fuc(a1-2)[GalNAc(a1-3)]Gal(b1-3)GlcNAc(b1-2)Man(a1-3)[Fuc(a1-2)[GalNAc(a1-3)]Gal(b1-3)GlcNAc(b1-2)Man(a1-6)]Man(b1-4)GlcNAc(b1-4)GlcNAc
In short: as §1

[28] = biological target: Fuc(a1-2)[GalNAc(a1-3)]Gal(b1-3)GlcNAc(b1-2)Man(a1-3)[Fuc(a1-2)[GalNAc(a1-3)]Gal(b1-3)GlcNAc(b1-2)Man(a1-6)]Man(b1-4)GlcNAc(b1-4)[Fuc(a1-6)]GlcNAc
In short: as §1

[29] = biological target: Fuc(a1-2)[GalNAc(a1-3)]Gal(b1-3)GlcNAc(b1-3)GalNAc
In short: as §1

[30] = biological target: Fuc(a1-2)[GalNAc(a1-3)]Gal(b1-3)GlcNAc(b1-6)GalNAc
In short: as §1

[31] = biological target: Fuc(a1-2)[GalNAc(a1-3)]Gal(b1-4)Glc
In short: as §1

[32] = biological target: Fuc(a1-2)[GalNAc(a1-3)]Gal(b1-4)GlcNAc
In short: as §1

[33] = biological target: Fuc(a1-2)[GalNAc(a1-3)]Gal(b1-4)GlcNAc(b1-2)Man
In short: as §1

[34] = biological target: Fuc(a1-2)[GalNAc(a1-3)]Gal(b1-4)GlcNAc(b1-2)Man(a1-3)[Fuc(a1-2)[GalNAc(a1-3)]Gal(b1-4)GlcNAc(b1-2)Man(a1-6)]Man(b1-4)GlcNAc(b1-4)GlcNAc
In short: as §1

[35] = biological target: Fuc(a1-2)[GalNAc(a1-3)]Gal(b1-4)GlcNAc(b1-2)Man(a1-3)[Fuc(a1-2)[GalNAc(a1-3)]Gal(b1-4)GlcNAc(b1-2)Man(a1-6)]Man(b1-4)GlcNAc(b1-4)[Fuc(a1-6)]GlcNAc
In short: as §1

[36] = biological target: Fuc(a1-2)[GalNAc(a1-3)]Gal(b1-4)GlcNAc(b1-3)Gal(b1-4)GlcNAc
In short: as §1

[37] = biological target: Fuc(a1-2)[GalNAc(a1-3)]Gal(b1-4)GlcNAc(b1-3)Gal(b1-4)GlcNAc(b1-3)Gal(b1-4)GlcNAc
In short: as §1

[38] = biological target: Fuc(a1-2)[GalNAc(a1-3)]Gal(b1-4)GlcNAc(b1-3)GalNAc
In short: as §1

[39] = biological target: Fuc(a1-2)[GalNAc(a1-3)]Gal(b1-4)GlcNAc(b1-3)[Fuc(a1-2)[GalNAc(a1-3)]Gal(b1-4)GlcNAc(b1-6)]GalNAc
In short: as §1

[40] = biological target: Fuc(a1-2)[GalNAc(a1-3)]Gal(b1-4)GlcNAc(b1-6)GalNAc
In short: as §1

[41] = biological target: Fuc(a1-2)[GalNAc(a1-3)]Gal(b1-4)[Fuc(a1-3)]GlcNAc
In short: as §1

[42] = biological target: Fuc(a1-2)[GalNAc(a1-3)]Gal(b1-4)[Fuc(a1-3)]GlcNAc(b1-3)GalNAc
In short: as §1

[43] = biological target: Fuc(a1-2)[GalNAc(a1-4)]Gal(b1-4)GlcNAc
In short: as §1

B1: AFCNVH (Aspergillus fumigatus) (protein)
chain: MSLRGFHTTCDTIVLKDKHILSSRCKRPDGTYSFSEIDLNDCLGNNNGKFVWGGESFVDSASQVNLALEGGEGRPMLHAQLNDWHGSVQSASVNLGECIQNEAGGLEYMHC
B1 was tested, and the “glycan array binding signal (z-score)” value [1] was -0.293, the “glycan array binding signal (z-score)” value [2] was -0.146 and the “glycan array binding signal (z-score)” value (Fuc(a1-2)Gal6S(b1-4)Glc) was -0.313. The “glycan array binding signal (z-score)” value [3] was -0.428, the “glycan array binding signal (z-score)” value (Fuc(a1-2)[Gal(a1-3)]Gal) was -0.411 and the “glycan array binding signal (z-score)” value [4] was -0.401. The “glycan array binding signal (z-score)” value [5] was -0.167, the “glycan array binding signal (z-score)” value [6] was -0.443 and the “glycan array binding signal (z-score)” value [7] was -0.504. For the same binder, the “glycan array binding signal (z-score)” value [8] was -0.326, the “glycan array binding signal (z-score)” value [9] was -0.292 and the “glycan array binding signal (z-score)” value [10] was -0.361. The “glycan array binding signal (z-score)” value [11] was -0.345, the “glycan array binding signal (z-score)” value [12] was 0.329 and the “glycan array binding signal (z-score)” value [13] was -0.444. The “glycan array binding signal (z-score)” value [14] was -0.442, the “glycan array binding signal (z-score)” value [15] was -0.237 and the “glycan array binding signal (z-score)” value [16] was -0.33. The “glycan array binding signal (z-score)” value [17] was -0.536, the “glycan array binding signal (z-score)” value [18] was -0.48 and the “glycan array binding signal (z-score)” value [19] was -0.455. The “glycan array binding signal (z-score)” value [20] was -0.196, the “glycan array binding signal (z-score)” value [21] was -0.388 and the “glycan array binding signal (z-score)” value [22] was 0.231. The “glycan array binding signal (z-score)” value [23] was 0.454, the “glycan array binding signal (z-score)” value [24] was 1.05 and the “glycan array binding signal (z-score)” value [25] was -0.408. The “glycan array binding signal (z-score)” value [26] was -0.23, the “glycan array binding signal (z-score)” value [27] was -0.535 and the “glycan array binding signal (z-score)” value [28] was -0.277. The “glycan array binding signal (z-score)” value [29] was -0.328, the “glycan array binding signal (z-score)” value [30] was -0.591 and the “glycan array binding signal (z-score)” value [31] was -0.022. For the same binder, the “glycan array binding signal (z-score)” value [32] was 1.16, the “glycan array binding signal (z-score)” value [33] was -0.458 and the “glycan array binding signal (z-score)” value [34] was 0.627. For the same binder, the “glycan array binding signal (z-score)” value [35] was -0.346, the “glycan array binding signal (z-score)” value [36] was 1.86 and the “glycan array binding signal (z-score)” value [37] was 0.21. For the same binder, the “glycan array binding signal (z-score)” value [38] was -0.472, the “glycan array binding signal (z-score)” value [39] was -0.285 and the “glycan array binding signal (z-score)” value [40] was 0.403. The “glycan array binding signal (z-score)” value [41] was -0.375, the “glycan array binding signal (z-score)” value [42] was -0.186 and the “glycan array binding signal (z-score)” value [43] was 3.32.
